Assay results published in publication PMC4336329 (PLoS ONE, 2015).
The campaign covered roughly 310,000 compounds. About 14,000 (4.5%) showed an effect of 50% or more. Effects have a minus sign here. Some of the results follow. Where a SMILES comes first, the peptide text is derived from it. The star is where a group is joined. Boc = CC(C)(C)OC(=O)*; OBn = c1ccc(CO*)cc1

target: human ether-à-go-go-related gene (hERG) potassium channel (human, UniProt Q12809); test: primary screen, population patch clamp on CHO cells stably expressing hERG
Sequence (Q12809 whole entry, looked up): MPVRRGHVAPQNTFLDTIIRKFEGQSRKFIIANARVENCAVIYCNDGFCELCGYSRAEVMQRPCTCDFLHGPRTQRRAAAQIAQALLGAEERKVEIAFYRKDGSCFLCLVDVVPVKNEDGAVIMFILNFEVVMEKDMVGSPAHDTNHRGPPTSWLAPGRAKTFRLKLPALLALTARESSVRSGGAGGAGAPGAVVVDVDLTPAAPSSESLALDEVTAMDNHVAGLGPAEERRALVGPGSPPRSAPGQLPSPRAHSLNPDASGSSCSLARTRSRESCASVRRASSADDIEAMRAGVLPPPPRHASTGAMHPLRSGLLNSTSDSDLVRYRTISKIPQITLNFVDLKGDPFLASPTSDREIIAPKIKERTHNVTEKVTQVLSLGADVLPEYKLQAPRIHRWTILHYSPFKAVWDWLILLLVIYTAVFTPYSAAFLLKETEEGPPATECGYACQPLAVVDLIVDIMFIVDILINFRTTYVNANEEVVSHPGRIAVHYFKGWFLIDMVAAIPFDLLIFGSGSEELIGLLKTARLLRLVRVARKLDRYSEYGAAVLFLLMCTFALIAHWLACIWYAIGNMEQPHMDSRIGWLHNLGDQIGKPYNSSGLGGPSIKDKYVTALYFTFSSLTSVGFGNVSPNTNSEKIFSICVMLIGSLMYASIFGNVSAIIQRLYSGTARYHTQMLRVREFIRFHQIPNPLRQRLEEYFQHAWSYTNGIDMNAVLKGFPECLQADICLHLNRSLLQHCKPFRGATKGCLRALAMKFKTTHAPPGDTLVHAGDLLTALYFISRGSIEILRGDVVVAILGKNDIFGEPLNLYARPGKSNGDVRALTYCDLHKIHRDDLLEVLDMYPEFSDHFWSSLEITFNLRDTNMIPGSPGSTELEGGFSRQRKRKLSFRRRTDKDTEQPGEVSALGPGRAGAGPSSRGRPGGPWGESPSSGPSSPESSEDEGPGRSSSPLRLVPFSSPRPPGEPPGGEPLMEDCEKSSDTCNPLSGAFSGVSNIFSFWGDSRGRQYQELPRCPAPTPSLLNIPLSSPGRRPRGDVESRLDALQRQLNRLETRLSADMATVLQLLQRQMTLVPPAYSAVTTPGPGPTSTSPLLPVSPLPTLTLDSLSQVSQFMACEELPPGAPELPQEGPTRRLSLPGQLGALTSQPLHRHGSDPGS
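Also: peak tail current of the secondary pulse compared with the same well before compound.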

First: c1ccc(-c2nnc3sc(CN4CCc5ccccc54)cn23)cc1
Second: Cc1nc(Nc2ccccc2Br)c2nnn(Cc3ccccc3)c2n1
The “hERG current change (%, negative = inhibition) at 10uM” value of the first is lower: -8.03% for the first, 7.03% for the second.

Compared with `O=C(c1cccs1)n1cc(C(=S)N2CCOCC2)c2ccccc21`, `O=C(NCc1ccc2c(c1)OCO2)c1cccs1` is lower in “hERG current change (%, negative = inhibition) at 10uM” value: -4.37% for the first, -16.5% for the second.

First: CCN(CC)CC1CCCCN1CC(=O)N1c2ccccc2C(=O)Nc2cccnc21 (centres unmarked)
Second: CCOc1cccc(CN2CCCC(CCC(=O)NCc3ccccc3F)C2)c1O (centres unmarked)
The “hERG current change (%, negative = inhibition) at 10uM” value of the first is higher: 15.9% for the first, -65% for the second.

First: COc1ccc(C(C)=O)cc1CSc1nnc(-c2ccccc2O)n1-c1ccccc1
Second: COc1ccc(NC(=O)CSc2nc3ccccc3c3nc4ccccc4n23)cc1
The “hERG current change (%, negative = inhibition) at 10uM” value of the first is lower: -36.5% for the first, 4.3% for the second.

Compared with `O=C1c2ccccc2C(=O)N1CCCCN(C(=O)c1cc([N+](=O)[O-])ccc1Cl)c1ccc(Cl)cc1`, `CCN(CC(=O)NCc1ccc(Cl)cc1)C(=O)CN1C(=O)NC(CC)(c2ccccc2)C1=O` (centres unmarked) is lower in “hERG current change (%, negative = inhibition) at 10uM” value: 0.537% for the first, -6.03% for the second.

Compared with `CCCn1c(SCC(=O)N(C2CCCCC2)C2CCS(=O)(=O)C2)n[nH]c1=O` (centres unmarked), `Cc1cc(OCC(=O)N(Cc2ccccc2)C2CCS(=O)(=O)C2)ccc1Cl` (centres unmarked) is lower in “hERG current change (%, negative = inhibition) at 10uM” value: -4.16% for the first, -14.1% for the second.

Going from `O=C(COC(=O)c1ccccc1NC(=O)c1ccco1)Nc1ncc(Cl)cc1Cl` to `COc1cc(NC(=O)CSc2nc3ccccc3c(=O)n2C)ccc1NC(=O)c1ccco1`, the “hERG current change (%, negative = inhibition) at 10uM” value rises from -32.5% to -29.4%.

Going from `COc1ccc(NC(=O)c2cccnc2Nc2ccccc2)cc1` to `COc1ccc(C2NC(=S)N(c3ccccc3)C(C)=C2C(=O)Nc2ccccc2)cc1` (centres unmarked), the “hERG current change (%, negative = inhibition) at 10uM” value rises from 1.93% to 2.82%.

Going from `CCOc1ccc(NC(=NCc2ccc3c(c2)OCO3)SC2CC(=O)N(c3ccc(OCC)cc3)C2=O)cc1` (centres unmarked) to `COC(=O)C1(Cc2ccccc2)NC(c2ccccc2C)C2C(=O)N(c3ccc4c(c3)OCO4)C(=O)C21` (centres unmarked), the “hERG current change (%, negative = inhibition) at 10uM” value rises from -1.29% to 3.57%.

First: CCCCCc1ccc(S(=O)(=O)Nc2cc(C)ccn2)cc1
Second: Cc1ccc(S(=O)(=O)Nc2nc3n(n2)C(c2ccc(Cl)cc2)CC(=O)N3)cc1 (centres unmarked)
The “hERG current change (%, negative = inhibition) at 10uM” value of the first is lower: 8.41% for the first, 8.7% for the second.

Going from `O=C(O)/C=C/c1cn(-c2ccccc2)nc1-c1cc2ccccc2o1` to `C[C@H](NC(=O)Cc1cccc2ccccc12)C(=O)NCc1ccccc1`, the “hERG current change (%, negative = inhibition) at 10uM” value falls from 30.4% to 7.09%.

First: O=C(CC1SC(N2CCCC2)=NC1=O)Nc1ccc(C(=O)NCCc2ccc(F)cc2)cc1 (centres unmarked)
Second: COc1ccc(C(CNC(=O)c2cccc(NS(=O)(=O)c3ccc(C)c(F)c3)c2)N2CCCC2)cc1 (centres unmarked)
The “hERG current change (%, negative = inhibition) at 10uM” value of the first is higher: -1.38% for the first, -64% for the second.

Compared with `Nc1ccc(N2CCN(Cc3ccccc3Cl)CC2)c(Cl)c1`, `Cc1ccccc1OCC(O)CN1CCN(c2ccc(Cl)cc2)CC1` (centres unmarked) is lower in “hERG current change (%, negative = inhibition) at 10uM” value: -11.4% for the first, -66.3% for the second.

Going from `O=C(N/N=C/c1ccc2c(c1)OCO2)C(O)c1ccccc1` (centres unmarked) to `CCC(NC(=O)Cc1cccs1)c1ccccc1` (centres unmarked), the “hERG current change (%, negative = inhibition) at 10uM” value rises from 3.3% to 19.5%.

Compared with `CCOc1nc(SC(C(C)=O)C(=O)Nc2ccccc2)nc(N(C)C)n1` (centres unmarked), `CC(=O)Nc1ccccc1OCC(=O)NC(C)c1ccccc1` (centres unmarked) is higher in “hERG current change (%, negative = inhibition) at 10uM” value: -14.4% for the first, 2.08% for the second.

First: COc1ccc(C(=O)C2CCCN(Cc3cnc(N4CCCC4)s3)C2)cc1OC (centres unmarked)
Second: COc1ccc(Cc2noc(CN(C)CC3(N4CCOCC4)CCCCC3)n2)cc1OC
The “hERG current change (%, negative = inhibition) at 10uM” value of the first is lower: -44% for the first, -15.5% for the second.

Going from `CC(=O)c1c(COC(=O)c2cccc(C)c2)nc2ccccc2[n+]1[O-]` to `O=C(O)CCC(=O)Nc1ccc(Br)cc1C(=O)c1ccccc1`, the “hERG current change (%, negative = inhibition) at 10uM” value rises from -1.95% to 19.4%.

Compared with `CSc1ccc(NC(=O)N2CC=C(n3c(=O)[nH]c4ccccc43)CC2)cc1`, `CN1C(=O)C(CC(=O)Nc2ccc(Cl)cc2)N(Cc2ccco2)C1=S` (centres unmarked) is higher in “hERG current change (%, negative = inhibition) at 10uM” value: -14.3% for the first, -3.36% for the second.

First: CC(C#N)(NC(=O)COC(=O)c1ccccc1NCCO)C1CC1 (centres unmarked)
Second: CC(C)(C)OC(=O)NCC(=O)NCC(=O)OCc1ccccc1 (Boc-Gly-Gly-OBn)
The “hERG current change (%, negative = inhibition) at 10uM” value of the first is higher: 5.49% for the first, -5.2% for the second.

First: CC1CCCN(C(=S)Nc2ccc(S(=O)(=O)N3CCCCC3)cc2)C1 (centres unmarked)
Second: COc1ccc(C(=O)Nc2ccccc2N2CCOCC2)cc1S(=O)(=O)N1CCOCC1
The “hERG current change (%, negative = inhibition) at 10uM” value of the first is higher: -15.9% for the first, -17.8% for the second.

Going from `Nc1[nH]n2c(=O)c3c(nc2c1N=Nc1ccc(Cl)cc1)CCCC3` to `COc1ccc(Nc2nc(N3CCCCC3)nc3ccccc23)c(OC)c1`, the “hERG current change (%, negative = inhibition) at 10uM” value falls from -8.56% to -62.9%.

Going from `O=C(CO/N=C/c1ccccc1OC(F)F)NCc1ccco1` to `COc1ccc(C)cc1S(=O)(=O)N(CC(=O)NCc1ccco1)c1ccc(C)cc1`, the “hERG current change (%, negative = inhibition) at 10uM” value falls from -5.06% to -38.7%.

First: CCOC(=O)C1CCN(C(=O)CS(=O)Cc2nc(-c3ccc(C)cc3)oc2C)CC1 (centres unmarked)
Second: C=CCc1cccc2cc(C(=O)N3CCN(C(=O)OCC)CC3)c(=O)oc12
The “hERG current change (%, negative = inhibition) at 10uM” value of the first is higher: -0.626% for the first, -26.9% for the second.

Going from `CCOC(=O)N1c2ccccc2Sc2ccccc21` to `CN1C(=O)C2(NC(=O)c3ccccc3N2C)c2ccccc21` (centres unmarked), the “hERG current change (%, negative = inhibition) at 10uM” value falls from 2.15% to 1.73%.

First: COCCn1c(SCC(=O)Nc2cc(C(C)(C)C)nn2-c2ccccc2)nnc1-c1ccncc1
Second: CCN(CC(=O)Nc1ccc(NC(C)=O)cc1)C(=O)CSc1nnc(-c2ccco2)n1CC
The “hERG current change (%, negative = inhibition) at 10uM” value of the first is lower: -60% for the first, 10.8% for the second.

First: Cc1cc(=O)oc2c3c(cc(OCC(=O)NCCC(=O)O)c12)OC(C)(C)CC3
Second: COCCCNC(=O)C1CCN(C(=O)c2oc3cc4sc(N(C)C)nc4cc3c2C)CC1
The “hERG current change (%, negative = inhibition) at 10uM” value of the first is higher: 10.8% for the first, 7.03% for the second.

Compared with `NC(=O)COC(=O)C(Cc1ccccc1)NS(=O)(=O)c1ccccc1F` (centres unmarked), `O=C(COc1ccccc1)NC(=S)Nc1cccc(NC(=O)c2ccccc2Cl)c1` is lower in “hERG current change (%, negative = inhibition) at 10uM” value: 11.5% for the first, 9.14% for the second.

Going from `O=Nc1c(O)[nH]c2c(F)cccc12` to `O=C(NCc1cccnc1)c1nnc(Cc2ccc(F)cc2)o1`, the “hERG current change (%, negative = inhibition) at 10uM” value rises from 1.42% to 2.24%.

Compared with `CN(Cc1cccs1)C(=O)CSc1nc2ccccc2[nH]1`, `Cc1cc2nn(-c3cccc4ccccc34)nc2cc1NC(=O)c1cccs1` is higher in “hERG current change (%, negative = inhibition) at 10uM” value: 1.16% for the first, 4.11% for the second.

Going from `O=C(COc1ccc(-c2nnco2)cc1)Nc1c(Cl)cccc1C(F)(F)F` to `CCOc1ccc(NC(=O)C/C(C)=N/NC(=O)c2cnccn2)cc1`, the “hERG current change (%, negative = inhibition) at 10uM” value falls from 2.41% to -13.3%.

Going from `CCc1ccc(N2CC(C(=O)Nc3nccs3)CC2=O)cc1` (centres unmarked) to `COc1ccc(OC)c(-c2csc(NC(=O)C3CSC4(C)CCC(=O)N34)n2)c1` (centres unmarked), the “hERG current change (%, negative = inhibition) at 10uM” value rises from -5.56% to 7.17%.

First: CCC(C)NC(=O)COC(=O)c1csc2c1CCCC2 (centres unmarked)
Second: Cc1ccc(C(=O)N=c2sccn2C)cc1S(=O)(=O)N1CCOCC1
The “hERG current change (%, negative = inhibition) at 10uM” value of the first is higher: 11.1% for the first, -4.4% for the second.

First: Cc1cccc(N(CC(=O)NC(C)(C)C)C(=O)CCC(=O)Nc2ccccn2)c1
Second: COc1ccc(OC)c(CCNC(=O)Cn2cccc2C(=O)c2ccccc2C)c1
The “hERG current change (%, negative = inhibition) at 10uM” value of the first is higher: 22.5% for the first, -6.7% for the second.

First: COc1ccc(N2C(=O)CC(Nc3cccc(C(C)=O)c3)C2=O)cc1OC (centres unmarked)
Second: COc1ccc2c(c1)CCC/C2=N/OC(=O)c1ccccc1OC
The “hERG current change (%, negative = inhibition) at 10uM” value of the first is lower: 7.07% for the first, 7.18% for the second.

Compared with `O=[N+]([O-])c1ccc(N/N=C/C=C/c2ccco2)cc1`, `Cc1nnc(NC(=O)/C=C/c2ccco2)s1` is higher in “hERG current change (%, negative = inhibition) at 10uM” value: 7% for the first, 26.3% for the second.

First: CC(C)CCOP(=O)(c1ccc(N(C)C)cc1)C(O)c1ccc(N(C)C)cc1 (centres unmarked)
Second: COCCCN1C(=O)C(=O)/C(=C(/O)c2ccc(S(=O)(=O)N3CCOCC3)cc2)C1c1ccc(C)cc1 (centres unmarked)
The “hERG current change (%, negative = inhibition) at 10uM” value of the first is lower: -3.32% for the first, 2.78% for the second.

First: O=C(NC1CCC(O)CC1)c1cccnc1Sc1ccccc1Cl (centres unmarked)
Second: C/C(=N\NC(=O)Cc1ccc(Br)cc1)c1cccnc1
The “hERG current change (%, negative = inhibition) at 10uM” value of the first is higher: 10.4% for the first, -7.27% for the second.

First: O=C(O)CCC(=O)Nc1ccc(Br)c(Cl)c1
Second: Cc1nnsc1C(=O)Nc1cccc(Cl)c1
The “hERG current change (%, negative = inhibition) at 10uM” value of the first is higher: 20.6% for the first, 7.95% for the second.

Compared with `CC(C)(C)C(=O)NC1(C(F)(F)F)NC(=O)N(c2ccccc2F)C1=O` (centres unmarked), `Cc1ccc(S(=O)(=O)N(C)C)cc1NC(=O)CSc1ncn[nH]1` is lower in “hERG current change (%, negative = inhibition) at 10uM” value: 14.6% for the first, 3.1% for the second.

Compared with `Cc1ccc2cc3c(N)[nH]nc3nc2c1`, `Cc1cccc(-c2cc3nc(C)c(C)c(NCCCn4ccnc4)n3n2)c1` is lower in “hERG current change (%, negative = inhibition) at 10uM” value: -2.36% for the first, -68.9% for the second.

Compared with `CN/C(=C\[N+](=O)[O-])NCCSCc1ccc(CN(C)C)o1.Cl`, `CN1C(=O)OC2(C)CCc3ccccc3C12C` (centres unmarked) is higher in “hERG current change (%, negative = inhibition) at 10uM” value: 9.07% for the first, 11.7% for the second.

Going from `O=[N+]([O-])c1ccccc1S(=O)(=O)Nc1ccc2c(c1)OCCO2` to `Cc1ccc(NC(=S)NC(=O)c2ccc(F)cc2)cc1S(=O)(=O)Nc1cccc(Cl)c1`, the “hERG current change (%, negative = inhibition) at 10uM” value rises from 1.28% to 13.4%.

Going from `CC1=C(C(=O)N2CCCC(N3CCN(c4cccc(C(F)(F)F)c4)CC3)C2)OCCO1` (centres unmarked) to `COc1ccc(N2CCN(C(=O)c3ccc(C)cc3)CC2)c([N+](=O)[O-])c1`, the “hERG current change (%, negative = inhibition) at 10uM” value falls from -17.9% to -62.9%.
